This is one part of the list. Repeats are few or missing, and single values can be far off.
Columns and labels:
IMR-32 [1] = assay: drug sensitivity score (DSS), single drug with vehicle (DSS (score)); higher = more cytotoxic; extreme values may be limits of the assay; conditions: 72 h; co-treatment: vehicle (DMSO)
SK-N-AS [2] = assay: as above; conditions: 72 h; co-treatment: vehicle (DMSO)
SK-N-AS [3] = assay: drug sensitivity score (DSS) in combination with SL-176 (DSS (score)); higher = more cytotoxic; extreme values may be limits of the assay; conditions: 72 h; co-treatment: SL-176 11.2 uM (IC25 in IMR-32)
IMR-32 [4] = assay: as above; conditions: 72 h; co-treatment: SL-176 11.2 uM (IC25 in IMR-32)
SK-N-AS [5] = assay: drug sensitivity score (DSS) in combination with GSK2830371 (DSS (score)); neuroblastoma lines; SL-176 and GSK2830371 are WIP1 inhibitors; higher = more cytotoxic; extreme values may be limits of the assay; conditions: 72 h; co-treatment: GSK2830371 at IC25 in IMR-32
IMR-32 [6] = assay: as above; conditions: 72 h; co-treatment: GSK2830371 at IC25 in IMR-32
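Throughout, for drug sensitivity score (DSS) in combination with GSK2830371: neuroblastoma cells in 384-well plates, each compound at five concentrations, luminescence read-out, DSS derived from fitted concentration-response curve combining IC50 with minimum and maximum inhibition.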
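Throughout, for drug sensitivity score (DSS) in combination with SL-176: cells in 384-well plates, luminescence read-out, each screening drug at five concentrations, DSS derived from the fitted concentration-response curve combining IC50 with minimum and maximum inhibition.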
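Throughout, for drug sensitivity score (DSS), single drug with vehicle: 384-well screen with five concentrations per compound and a luminescence read-out, DSS computed from the fitted dose-response curve combining IC50 with minimum and maximum inhibition.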

Row | Compound | drug sensitivity score (IMR-32 [1]) | drug sensitivity score (SK-N-AS [2]) | drug sensitivity score (SK-N-AS [3]) | drug sensitivity score (IMR-32 [4]) | drug sensitivity score (SK-N-AS [5]) | drug sensitivity score (IMR-32 [6])
1 | N#Cc1ccnc(N2C(=O)CC[C@H]2C(=O)N(c2cncc(F)c2)[C@H](C(=O)NC2CC(F)(F)C2)c2ccccc2Cl)c1 [Ivosidenib] | 0.6 | 0 | 0.1 | 0 | 0 | 0
2 | COc1cc2c(Oc3ccc4[nH]c(C)cc4c3F)ncnc2cc1OCCCN1CCCC1 [Cediranib] | 0 | 0 | 0 | 0 | 0 | 0
3 | CC[C@H](Nc1ncnc2[nH]cnc12)c1nc2cccc(F)c2c(=O)n1-c1ccccc1 [Idelalisib] | 0 | 0.1 | 0.1 | 0 | 0.2 | 3.8
4 | CCCCNc1ncc(C(=O)NCc2ccc(-n3ccnc3)cc2)c(NC2CCC(O)CC2)n1 (stereo not drawn) | 0 | 1.1 | 1.9 | 0 | 1.6 | 0.5
5 | COCCOc1cnc2ccn([C@H](C)c3nnc4c(F)cc(-c5cnn(C)c5)cn34)c(=O)c2c1 | 0 | 0 | 0 | 0 | 0 | 2.2
6 | O=C(/C=C\n1cnc(-c2cc(C(F)(F)F)cc(C(F)(F)F)c2)n1)NNc1cnccn1 [Selinexor] | 31.3 | 18.9 | 18.9 | 29 | 19.1 | 32.5
7 | Cc1sc2c(c1C)C(c1ccc(Cl)cc1)=N[C@@H](CC(=O)Nc1ccc(OCCOCCOCCOCCNc3cccc4c3C(=O)N(C3CCC(=O)NC3=O)C4=O)cc1)c1nnc(C)n1-2 (stereo partly drawn) | 20.7 | 5.4 | 5.4 | 24.3 | 5.7 | 21.2
8 | CC(C)c1cc(C(=O)N2Cc3ccc(CN4CCN(C)CC4)cc3C2)c(O)cc1O [Onalespib] | 15.2 | 12.5 | 15.2 | 11.3 | 12.7 | 11
9 | Oc1ncnc2[nH]ncc12 [Allopurinol] | 3.2 | 0 | 0 | 0 | 0 | 0
10 | O=C(c1ccc(C(=O)N2CCC(N3CCCC3)CC2)c(Nc2ccccc2)c1)N1CCC(N2CCCC2)CC1 | 0 | 0 | 0 | 0 | 0 | 0
11 | CNc1nc(-c2ccc3c(N)n[nH]c3c2)cc(N2C[C@@H](C(=O)NC3CCCCC3)CC[C@H]2C)n1 | 6.4 | 3.7 | 3.4 | 4 | 5.1 | 9.2
12 | c1cc(CN2CCCNCCNCCCNCC2)ccc1CN1CCCNCCNCCCNCC1 [Plerixafor] | 0 | 0 | 0 | 0 | 0 | 0
13 | COc1cc([C@@H]2c3cc4c(cc3[C@@H](O[C@@H]3O[C@@H]5CO[C@@H](c6cccs6)O[C@H]5[C@H](O)[C@H]3O)[C@H]3COC(=O)[C@H]23)OCO4)cc(OC)c1O [Teniposide] | 0 | 0 | 0 | 0 | 0 | 0
14 | Cc1cc([C@@H](C)Nc2ccccc2C(=O)O)c2nc(N3CCOCC3)cc(=O)n2c1 | 0 | 0 | 0 | 0 | 0.2 | 0
15 | CC[C@@H]1C(=O)OC[C@@H]1Cc1cncn1C [Pilocarpine] | 0 | 0 | 0.1 | 0 | 0 | 0
16 | CS(=O)(=O)c1ccc(-c2cnc(N)c(C(=O)Nc3ccccc3)n2)cc1 | 3 | 0.2 | 0 | 0 | 2.6 | 0
17 | O=c1[nH]c(=O)n([C@H]2C[C@H](O)[C@@H](CO)O2)cc1C(F)(F)F [Trifluridine] | 9.5 | 0.3 | 0.2 | 8.8 | 0 | 17.3
18 | CCN1CCN(Cc2ccc(Nc3ncc(F)c(-c4cc(F)c5nc(C)n(C(C)C)c5c4)n3)nc2)CC1 [Abemaciclib] | 9.6 | 7 | 7.9 | 10.7 | 7.9 | 8.6
19 | CC[C@]1(O)C[C@H]2CN(CCc3c([nH]c4ccccc34)[C@@](C(=O)OC)(c3cc4c(cc3OC)N(C=O)[C@H]3[C@@](O)(C(=O)OC)[C@H](OC(C)=O)[C@]5(CC)C=CCN6CC[C@]43[C@@H]65)C2)C1 [Vincristine] | 32.9 | 20.9 | 21.1 | 29.8 | 19.7 | 30.4
20 | CCC1=C[C@@H]2CN(C1)Cc1c([nH]c3ccccc13)[C@@](C(=O)OC)(c1cc3c(cc1OC)N(C)[C@H]1[C@@](O)(C(=O)OC)[C@H](OC(C)=O)[C@]4(CC)C=CCN5CC[C@]31[C@@H]54)C2 [Vinorelbine] | 46.3 | 34 | 33.8 | 44.8 | 34.4 | 46.2
21 | C[C@H]1Oc2cc(cnc2N)-c2c(nn(C)c2C#N)CN(C)C(=O)c2ccc(F)cc21 | 1.1 | 0 | 0 | 0.7 | 0 | 0
22 | CCCS(=O)(=O)Nc1ccc(F)c(C(=O)c2c[nH]c3ncc(-c4ccc(Cl)cc4)cc23)c1F [Vemurafenib] | 0 | 0 | 0 | 0 | 0 | 0
23 | Nc1cc(F)ccc1NC(=O)/C=C/c1cnn(C/C=C/c2ccccc2)c1 | 7.3 | 4 | 3.9 | 5.5 | 3.6 | 9.3
24 | CC[C@H](CO)Nc1nc(NCc2ccccc2)c2ncn(C(C)C)c2n1 [Seliciclib] | 2.1 | 1.8 | 2.4 | 6.5 | 0.6 | 4.4
25 | Cn1c(=O)n(-c2ccc(C(C)(C)C#N)cc2)c2c3cc(-c4cnc5ccccc5c4)ccc3ncc21 [Dactolisib] | 12.8 | 16.8 | 16.6 | 13.5 | 16.7 | 15.8
26 | CCN(CC)CCNC(=O)c1c(C)[nH]c(/C=C2\C(=O)Nc3ccc(F)cc32)c1C [Sunitinib] | 1.8 | 2.8 | 1.5 | 0.9 | 2.6 | 0
27 | CNC(=O)c1ccc(C)c(-n2c(C)cc(OCc3ccc(F)cc3F)c(Br)c2=O)c1 | 0 | 0 | 0 | 0 | 0 | 4.3
28 | COc1cccc(-c2ccc(NC(=O)C3=C(C(=O)O)CCC3)c(F)c2)c1 [Vidofludimus] | 7.8 | 0.9 | 1.2 | 4.6 | 1.2 | 7.4

Reference: the supplement of paper PMC12009370
